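Interpolation was linear, between the two tested concentrations surrounding the appropriate level; five concentrations were tested over 48 hours in 96-well plates. GI50: concentration for 50% inhibition of growth. The concentration for full growth arrest is given as TGI.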
Test system: NCI-H322M lung
Test: NCI tumour cell line growth inhibition, 48 h

Compound | GI50 [µM] | TGI [µM]
CC(=O)Nc1ccc(-c2cn(-c3cccc(C(=O)Nc4ccc(Cl)c(C(F)(F)F)c4)c3)nn2)cn1 | 1.77 | 4.32
COc1cc(C2CC(c3ccc(Cl)cc3)=Nc3c(N)nc(N)nc3N2)ccc1Oc1nc(Nc2ccc(F)cc2)nc(N(C)C)n1 (stereo unspecified) | > 100 | > 100
Cc1ccc(C(=O)C[n+]2cccc3c4ccccc4ccc32)cc1 | 18 | 66
